The values that follow are results of earlier work, collected in patent US10472391B2 (priority 2013, dated 2019).

The data set has as its system S. aureus. The note with it: mouse, in vivo; cited from earlier work.

In the case of `CNC(=O)[C@@H](NC(=O)[C@H](CCCc1ccccc1)[C@H](C)N(O)C=O)C(C)(C)C` [GI254023X, (R)—N—((S)-3,3-dimethyl-1-(methylamino)-1-oxobutan-2-yl)-2-((S)-1-(N-hydroxyformamido)-ethyl)-5-phenylpentanamide], the “effect on S. aureus disease” value is “blunted S. aureus disease”.
